The results in this text go back to the supplement of paper PMC8728848.

Some of the results follow.

What all share (experiment): glycan array binding signal (z-score within array); higher = stronger binding
What all share (settings): glycan notation: IUPAC condensed, linker removed

In assay [1] the target is Gal(b1-4)GlcNAc(b1-3)Gal(b1-4)GlcNAc(b1-3)Gal(b1-4)GlcNAc(b1-2)Man(a1-3)[Gal(b1-4)GlcNAc(b1-3)Gal(b1-4)GlcNAc(b1-3)Gal(b1-4)GlcNAc(b1-2)Man(a1-6)]Man(b1-4)GlcNAc(b1-4)GlcNAc. The gist of the method: (§1)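 Negative Z-scores can be read as non-binding. The Z-score is calculated within each array and then averaged across arrays of one protein sequence at different concentrations or buffers and across linkers. Arrays, 3228 in all, were curated from the Consortium for Functional Glycomics database and kept only where the protein sequence was available.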

Assay [2] concerns the target Gal(b1-4)GlcNAc(b1-3)Gal(b1-4)GlcNAc(b1-3)Gal(b1-4)GlcNAc(b1-2)Man(a1-3)[Gal(b1-4)GlcNAc(b1-3)Gal(b1-4)GlcNAc(b1-3)Gal(b1-4)GlcNAc(b1-2)Man(a1-6)]Man(b1-4)GlcNAc(b1-4)[Fuc(a1-6)]GlcNAc. The procedure, abridged: as §1
Assay [3] concerns the target Gal(b1-4)GlcNAc(b1-3)Gal(b1-4)GlcNAc(b1-3)Gal(b1-4)GlcNAc(b1-2)[Gal(b1-4)GlcNAc(b1-3)Gal(b1-4)GlcNAc(b1-3)Gal(b1-4)GlcNAc(b1-6)]Man(a1-6)[Gal(b1-4)GlcNAc(b1-3)Gal(b1-4)GlcNAc(b1-3)Gal(b1-4)GlcNAc(b1-2)Man(a1-3)]Man(b1-4)GlcNAc(b1-4)[Fuc(a1-6)]GlcNAc. The gist of the method:
as §1

Assay [4] has as its target Gal(b1-4)GlcNAc(b1-3)Gal(b1-4)GlcNAc(b1-3)Gal(b1-4)GlcNAc(b1-3)Gal(b1-4)GlcNAc(b1-2)Man(a1-3)[Gal(b1-4)GlcNAc(b1-3)Gal(b1-4)GlcNAc(b1-3)Gal(b1-4)GlcNAc(b1-3)Gal(b1-4)GlcNAc(b1-2)Man(a1-6)]Man(b1-4)GlcNAc(b1-4)GlcNAc. The gist of the method:
as §1

Assay [5] has as its target Gal(b1-4)GlcNAc(b1-3)Gal(b1-4)GlcNAc(b1-3)Gal(b1-4)GlcNAc(b1-3)Gal(b1-4)GlcNAc(b1-2)Man(a1-3)[Gal(b1-4)GlcNAc(b1-3)Gal(b1-4)GlcNAc(b1-3)Gal(b1-4)GlcNAc(b1-3)Gal(b1-4)GlcNAc(b1-2)Man(a1-6)]Man(b1-4)GlcNAc(b1-4)[Fuc(a1-6)]GlcNAc. The procedure, abridged:
as §1

Assay [6] deals with Gal(b1-4)GlcNAc(b1-3)Gal(b1-4)GlcNAc(b1-3)Gal(b1-4)GlcNAc(b1-3)Gal(b1-4)GlcNAc(b1-2)[Gal(b1-4)GlcNAc(b1-3)Gal(b1-4)GlcNAc(b1-3)Gal(b1-4)GlcNAc(b1-3)Gal(b1-4)GlcNAc(b1-6)]Man(a1-6)[Gal(b1-4)GlcNAc(b1-3)Gal(b1-4)GlcNAc(b1-3)Gal(b1-4)GlcNAc(b1-3)Gal(b1-4)GlcNAc(b1-2)Man(a1-3)]Man(b1-4)GlcNAc(b1-4)[Fuc(a1-6)]GlcNAc. The gist of the method: as §1
Assay [7] deals with Gal(b1-4)GlcNAc(b1-3)Gal(b1-4)GlcNAc(b1-3)Gal(b1-4)GlcNAc(b1-3)Gal(b1-4)GlcNAc(b1-3)Gal(b1-4)GlcNAc(b1-2)Man(a1-3)[Gal(b1-4)GlcNAc(b1-3)Gal(b1-4)GlcNAc(b1-3)Gal(b1-4)GlcNAc(b1-3)Gal(b1-4)GlcNAc(b1-3)Gal(b1-4)GlcNAc(b1-2)Man(a1-6)]Man(b1-4)GlcNAc(b1-4)GlcNAc. The gist of the method: as §1
Assay [8] addresses Gal(b1-4)GlcNAc(b1-3)Gal(b1-4)GlcNAc(b1-3)Gal(b1-4)GlcNAc(b1-3)Gal(b1-4)GlcNAc(b1-3)Gal(b1-4)GlcNAc(b1-2)Man(a1-3)[Gal(b1-4)GlcNAc(b1-3)Gal(b1-4)GlcNAc(b1-3)Gal(b1-4)GlcNAc(b1-3)Gal(b1-4)GlcNAc(b1-3)Gal(b1-4)GlcNAc(b1-2)Man(a1-6)]Man(b1-4)GlcNAc(b1-4)[Fuc(a1-6)]GlcNAc. The procedure, abridged:
as §1

Assay [9] has as its target Gal(b1-4)GlcNAc(b1-3)Gal(b1-4)GlcNAc(b1-3)Gal(b1-4)GlcNAc(b1-3)Gal(b1-4)GlcNAc(b1-3)Gal(b1-4)GlcNAc(b1-2)[Gal(b1-4)GlcNAc(b1-3)Gal(b1-4)GlcNAc(b1-3)Gal(b1-4)GlcNAc(b1-3)Gal(b1-4)GlcNAc(b1-3)Gal(b1-4)GlcNAc(b1-6)]Man(a1-6)[Gal(b1-4)GlcNAc(b1-3)Gal(b1-4)GlcNAc(b1-3)Gal(b1-4)GlcNAc(b1-3)Gal(b1-4)GlcNAc(b1-3)Gal(b1-4)GlcNAc(b1-2)Man(a1-3)]Man(b1-4)GlcNAc(b1-4)[Fuc(a1-6)]GlcNAc. The gist of the method: as §1

Assay [10] deals with Gal(b1-4)GlcNAc(b1-3)Gal(b1-4)GlcNAc(b1-3)Gal(b1-4)GlcNAc(b1-3)Gal(b1-4)GlcNAc(b1-3)Gal(b1-4)GlcNAc(b1-3)Gal(b1-4)GlcNAc(b1-2)Man(a1-3)[Gal(b1-4)GlcNAc(b1-3)Gal(b1-4)GlcNAc(b1-3)Gal(b1-4)GlcNAc(b1-3)Gal(b1-4)GlcNAc(b1-3)Gal(b1-4)GlcNAc(b1-3)Gal(b1-4)GlcNAc(b1-2)Man(a1-6)]Man(b1-4)GlcNAc(b1-4)GlcNAc. The procedure, abridged: as §1
In assay [11] the target is Gal(b1-4)GlcNAc(b1-3)Gal(b1-4)GlcNAc(b1-3)GalNAc. The gist of the method:
as §1

The target of assay [12] is Gal(b1-4)GlcNAc(b1-3)Gal(b1-4)GlcNAc(b1-3)[Gal(b1-4)GlcNAc(b1-3)Gal(b1-4)GlcNAc(b1-6)]GalNAc. The procedure, abridged:
as §1

In assay [13] the target is Gal(b1-4)GlcNAc(b1-3)Gal(b1-4)GlcNAc(b1-6)[Gal(b1-3)]GalNAc. The gist of the method:
as §1

The target in assay [14] is Gal(b1-4)GlcNAc(b1-3)Gal(b1-4)[Fuc(a1-3)]GlcNAc(b1-3)Gal(b1-4)[Fuc(a1-3)]GlcNAc. The gist of the method: as §1
In assay [15] the target is Gal(b1-4)GlcNAc(b1-3)GalNAc. The gist of the method: as §1
Assay [16] deals with Gal(b1-4)GlcNAc(b1-3)[Fuc(a1-3)GlcNAc(b1-6)]Gal(b1-4)Glc. The gist of the method:
as §1

Assay [17] concerns the target Gal(b1-4)GlcNAc(b1-3)[Gal(b1-4)GlcNAc(b1-6)]Gal(b1-4)GlcNAc. The gist of the method: as §1
In assay [18] the target is Gal(b1-4)GlcNAc(b1-3)[GlcNAc(b1-6)]Gal(b1-4)GlcNAc. The gist of the method: as §1
In assay [19] the target is Gal(b1-4)GlcNAc(b1-6)Gal(b1-4)GlcNAc. The procedure, abridged:
as §1

B1: PX14343B-bfa-546-20-546 (Bacteroides fragilis) (protein)
chain: CDLERYPLTDLSEETFWNSESNAELALTSLYRGSLTDGVEYNPSDWWSYHGMIMMEHLSDNAFDRRGENNPFFKISSGNLTADNAFIKRYWETSYKRIGYCNRFLVGIQNSSESEKKTRMIAEARFLRATQYFYLASYFKNVPLVENVLTGEEANNVTKTSQADILKWCVTEFTAAAADLPRFSAIPAGEAGRACKQAALAFLGRTCMLQKDWKSGAKAFHDIMELGDNAINANYQELFYPSTGTSNKENIFYIQYLENYLGTGLPQHALSAKDGGWSLVNPAADLYESYEFKDGTPFSYDDPRYDPSNLGKDRDPRLDYTIYYNGAIFMGTEYKMSPDYSAAKKEKLDYTSEASRTGFMMRKYFEESTPINDVQSANGLTPVIRYAEVLLGYLECLVEDNQTITQGILDETINAVRGRASVNMPPVTEVTPAKLREIVRHERRIELAMEGIRYWDIMRWGIAHEVLSQKIWGAPYPGSTQYATTTKEVDPTGNYRWYVGKRAFRNPTDYTWPIPQSEQNINPNLRD
For the molecule B1, the “glycan array binding signal (z-score)” value in assay [1] is -0.109; in [2], -0.133; in [3], -0.107; in [4], -0.057; in assay [5], -0.106; in assay [6], -0.088. For the same molecule, the “glycan array binding signal (z-score)” value in assay [7] was -0.105; in [8], -0.105; in assay [9] it was -0.1; in assay [10] it was -0.101; in assay [11], -0.124; in assay [12], -0.098. The “glycan array binding signal (z-score)” value in assay [13] was -0.133; in assay [14], -0.13; in assay [15], -0.124; in assay [16] it was -0.123; in assay [17] it was -0.123; in assay [18], -0.121. The “glycan array binding signal (z-score)” value in assay [19] is -0.116.
